This passage reports survival results from PubChem BioAssay AID463173 (ICCB-Longwood Screening Facility, Harvard Medical School, 2010).

In all, about 52,000 compounds went through this assay and about 1,700 (3.3%) were called active. Cut-off read from the data, not from the text of the source: active = survival mostly below about 52% (no sharp cut-off); inactive = mostly above about 56%. The list shows a part of the results.

The assay has as its system Wild type. In words: growth inhibition of S. aureus wild type versus tarO mutant, primary screen, teichoic acid synthesis inhibitors, RN4220, OD600 (AID 463173). As to conditions: S. aureus RN4220 wild type/DeltatarO growth, OD600, 18 h, hits give low values, screened at 18.75 µg/mL (by protocol).
On to `Cc1ccc(Nc2cc(C)nc(-n3nc(C)cc3C)n2)cc1`, for which the survival is inactive: 111%.
Regarding `O=C(NC1CCCCC1)c1ccc2c(c1)N(Cc1cccc(F)c1)C(=O)c1ccccc1S2`, the survival is inactive: 79%.
The same measure for `Cn1cnc(S(=O)(=O)N2CCC(C(=O)Nc3ccc(F)cc3F)CC2)c1`: inactive: 81%; for `CCOc1ccc(CNC(=O)c2ccc3c(c2)sc2nc(-c4ccccc4)cn23)cc1`: inactive: 84%.
The value for `Cc1ccc(-c2noc(CNC(=O)COc3cc(C)c(Br)c(C)c3)n2)cc1` was inactive: 89%; that for `CCOCCc1nnc(NC(=O)C(=O)c2cc(C)n(-c3cccc(C)c3)c2C)s1` was inactive: 83%; that for `O=C(NC1CCCCC1)c1ccc2c(c1)sc1nc(-c3ccc(F)cc3)cn12` was inactive: 92%.
`Cc1ccc(-n2nc(C(=O)N3CCN(c4ccc(F)cc4)CC3)c(=O)n(C)c2=O)cc1`: the survival was inactive: 76%.
As for `COc1ccc2nc(NC(=O)c3nc(S(=O)(=O)Cc4ccccc4F)ncc3Cl)sc2c1`, the survival is inactive: 94%.
The same measure for `c1ccc2c(c1)[nH]c1c(N3CCOCC3)ncnc12`: inactive: 112%; for `O=C(O)CCC(=O)Nc1ccccc1O`: inactive: 102%; for `COc1ccc(NCc2cc3cc4c(cc3n(CC(=O)Nc3cccc(F)c3)c2=O)OCO4)cc1`: inactive: 121%.
`Cc1ccc(Cl)cc1-n1c(CCC(=O)O)ccc1-c1cccs1`: the survival was inactive: 64%.
The same measure for `COc1cc(OC)c(NC(=O)Cn2c(=O)c(C(F)(F)F)nc3ccccc32)cc1Cl`: inactive: 53%; for `CCc1cccc(NC(=O)Cn2c(=O)n(-c3ccccc3C)c(=O)c3c2c2cc(C)ccc2n3C)c1`: inactive: 80%; for `COC(=O)c1ccc(CSc2nc3c([nH]c4ccccc43)c(=O)n2-c2ccc(F)cc2)o1`: inactive: 66%.
The same measure for `O=C(Cn1c(=O)n(-c2ccccc2)c(=O)c2ccc(C(=O)NCc3ccc4c(c3)OCO4)cc21)Nc1ccc(F)cc1`: inactive: 73%; for `Clc1ccccc1N1CCN(Cc2nnc(-c3ccccc3)o2)CC1`: inactive: 80%.
The same measure for `COc1ccc(CCCc2nnc(SCC(=O)Nc3cccc(C)c3)o2)cc1C`: inactive: 88%; for `O=C(c1ccccc1)N(C(=O)c1ccccc1)c1ccccn1`: inactive: 112%.
For `CCCCCC[N+]1(CCO)CCOCC1`, the survival is inactive: 118%.
The value for `Cc1ccc(CNC(=O)c2ccc(CS(=O)(=O)Cc3ccc(F)cc3)o2)cc1` was inactive: 90%; that for `CCCCc1nn2c(=O)cc(COC(=O)c3cccc(NC(=O)c4cccc(Cl)c4)c3)nc2s1` was inactive: 85%; that for `CCOc1nc(-c2ccccc2)cc(-c2ccccc2)n1` was inactive: 125%.
The value for `Cc1ccccc1CN1CCc2nc(N3CCN(c4ncccn4)CC3)ncc2C1` was inactive: 75%; that for `NC(=O)c1cc2c([nH]c1=O)CCCCCCCCCC2` was inactive: 120%.
The same measure for `CCCCN(C)CCCNC(=O)Cn1ncc2c3ccccc3n(Cc3cccc(Cl)c3)c2c1=O`: inactive: 86%; for `Cc1cccc(N2CCN(S(=O)(=O)c3cn(C)c(C)n3)CC2)c1C`: active: -3%; for `CCOc1ccccc1C(=O)Oc1c(S(=O)(=O)c2ccc(C)cc2)c(C)nn1-c1ccccc1`: inactive: 63%.
Take `COc1cc(NC(=O)CSc2nc(-c3cccs3)cc(C(F)(F)F)n2)cc(OC)c1OC`: the survival was inactive: 69%.
The same measure for `COc1cccc(-n2c(SCC(=O)N3CCc4ccccc43)nc3c([nH]c4ccccc43)c2=O)c1`: inactive: 71%; for `COCCNc1ccc(-c2nc(-c3ccncc3)no2)cc1[N+](=O)[O-]`: inactive: 92%; for `Cc1cccc(CSc2nc3c(c(=O)[nH]2)CCC3)c1`: inactive: 78%.
In the case of `O=C(Nc1ccc(F)cc1F)c1cccc2c1C(=O)N(C1CCCCC1)C2`, the survival was inactive: 94%.
Turning to `CCN(CC)CCNc1nc2c(c(=O)n(C)c(=O)n2C)n1CCc1ccccc1`, the survival was inactive: 122%.
The value for `COc1ccc(S(=O)(=O)NCc2cccn2Cc2cccc(C)c2)cc1Cl` was inactive: 119%.
The same measure for `CCc1ccc(C2CC(=O)c3c([nH]c(C(=O)OC4CCC(C)CC4)c3C)C2)cc1` (stereo not given): inactive: 91%.
The same measure for `CNC(=O)c1ccc2nc(CCc3ccccc3)oc2c1`: inactive: 73%.
Regarding `CCS(=O)(=O)N1CCc2cc(C(=O)N3CCN(c4ccc(OC)cc4)CC3)ccc21`, the survival was inactive: 78%.
The value for `COc1ccc(OC)c(S(=O)(=O)N2Cc3ccccc3CC2C(=O)Nc2ccc(C)cc2C)c1` (stereo not given) was inactive: 77%; that for `CCc1cccc(C)c1NC(=O)C(CC)n1nc(C)c2c(C)n(-c3ccccc3)nc2c1=O` (stereo not given) was inactive: 75%.
Regarding `COc1ccc(-c2nc(SCC(=O)Nc3ccccc3)c(-c3ccc(F)cc3)[nH]2)cc1OC`, the survival is inactive: 58%.
The same measure for `COc1ccc(-c2cc(C(F)(F)F)nc(SCC(=O)N3CCCCC3)n2)cc1OC`: inactive: 90%.
The same measure for `CCOC(=O)c1cc(-c2ccc(OC)c(S(=O)(=O)NC3CCCCC3)c2)on1`: inactive: 71%.
The value for `CCCCN(CC)CCCNC(=O)CN1C(=O)CSc2ccc(S(=O)(=O)N3CCOCC3)cc21` was inactive: 99%.
Turning to `COc1ccccc1N(CC(=O)N1CCC(C)CC1)S(=O)(=O)c1ccc(C)cc1`, the survival was inactive: 126%.
The value for `COc1ccc(CCNC(=O)CN2C(=O)COc3ccc(C)cc32)cc1OC` was inactive: 71%; that for `CCN(C(=O)Cn1nc(Cc2ccncc2)c2ccccc2c1=O)c1cccc(Cl)c1` was inactive: 79%; that for `Cn1c(=O)c2c(nc(SCC(=O)N3CCCC3)n2C)n(C)c1=O` was inactive: 107%.
The value for `Cc1cccc(Nc2nn3c(=O)c4cc5c(cc4nc3s2)OCO5)c1` was inactive: 135%; that for `COCCCNC(=O)c1c(-c2ccccc2)c(-c2ccccc2)nn(C)c1=O` was inactive: 87%.
The value for `O=C(Nc1ccc2nc3n(c(=O)c2c1)CCCCC3)C(=O)Nc1ccccc1F` was inactive: 69%.
Take `COc1cc(NC(=O)c2nn(C)c3c2CS(=O)(=O)c2ccccc2-3)cc(OC)c1`: the survival is inactive: 78%.
The value for `CCc1ccc(Cn2c(CNS(=O)(=O)c3ccc([N+](=O)[O-])cc3)nc3cccnc32)cc1` was active: 0%; that for `Cc1ccc(C(=O)NCc2ccc3c(c2)CCN3C(=O)c2ccc(C)cc2)cc1` was inactive: 72%; that for `COCCNC(=O)c1ccc(-n2c(-c3ccccc3)cc3c2CCC(C)C3)cc1` (stereo not given) was inactive: 105%.
The same measure for `CCn1nc(C)c(CCN(C)C(=O)Nc2ccc(C)c(Cl)c2)c1C`: inactive: 63%.
In the case of `Cc1cc(Nc2cccc(Cl)c2)nc2ccc(NC(=O)Cc3ccc(Cl)cc3)cc12`, the survival is inactive: 79%.
Turning to `CCN(CC)CCNC(=O)CN1C(=O)COc2ccc(S(=O)(=O)N3CCOCC3)cc21`, the survival was inactive: 82%.
The same measure for `CCOC(=O)Cn1c(=O)n(CC2CCCO2)c2nc(-c3ccc(OCC)cc3)nc(C(N)=O)c21` (stereo not given): active: -4%; for `COc1cc(N2C(=O)CSC23C(=O)N(Cc2cccc(F)c2)c2ccccc23)cc(OC)c1OC` (stereo not given): inactive: 88%; for `COc1ccc(NC(=O)c2sc3nc4c(cc3c2N)CCCCCC4)c(OC)c1`: inactive: 76%.
As to `CN(C)C(=O)N1CCN(S(=O)(=O)c2ccccc2)CC1`, the survival is inactive: 109%.
The value for `COc1ccc(CCNC(=O)c2ccc3c(c2)CCN3S(=O)(=O)c2ccccc2)cc1OC` was inactive: 103%.
For the compound `CCOc1ccccc1NC(=O)Cn1c(=O)n(Cc2ccccc2)c(=O)c2c1c1cc(C)ccc1n2C`, the survival is inactive: 72%.
The value for `COc1ccccc1Nc1c2c(nc3ccc(NC(=O)c4ccc(OC)c(OC)c4)cc13)CCCC2` was inactive: 68%.
For the compound `N#Cc1cc(-c2ccc(Cl)cc2)no1`, the survival was inactive: 94%.
The same measure for `Cc1ccc(-n2ncc(C(=O)NCc3ccccc3)c2C2CCN(C(=O)OC(C)(C)C)CC2)cc1`: inactive: 69%; for `Cc1cc(=O)n2c(C(=O)Nc3ccc(Br)cc3)c(C(=O)Nc3ccccc3)sc2n1`: inactive: 93%; for `COc1ccccc1OCc1nnc(-c2ccccc2)o1`: inactive: 81%.
The value for `CCCCOC(=O)c1ccc(OC(=O)c2sc3ncn(Cc4ccccc4Cl)c(=O)c3c2C)cc1` was inactive: 57%.
The same measure for `CCN1CC2CCCC3(C1)C(=O)NC1(CCCCC1)N=C23` (stereo not given): inactive: 120%; for `CS(=O)c1nc(-c2cccs2)cc(-c2ccccc2)c1C#N` (stereo not given): inactive: 90%; for `CCCc1nnc(SCC(=O)NC2CC2)n1CC`: inactive: 95%.
Turning to `Cc1ccc(Cl)cc1Nc1sc(C(=O)c2ccc(F)cc2)c(N)c1S(C)(=O)=O`, the survival was inactive: 72%.
The value for `COc1cccc(CNC(=O)Cc2csc3nc(-c4ccccc4)cn23)c1` was inactive: 68%; that for `CCOc1ccc(CNCCCSc2nnnn2C)cc1OC` was inactive: 86%; that for `O=C(CSc1nc(=O)n(Cc2ccco2)c2c1CCC2)Nc1cccc(F)c1` was inactive: 72%.
The value for `CCOc1ccc(NC(=O)Cn2cc(C(=O)c3ccc(OC)cc3)c(=O)c3cc4c(cc32)OCO4)cc1` was inactive: 87%; that for `Cc1ccccc1Nc1c(-c2ccc(Br)cc2O)nc2sccn12` was inactive: 74%.
The same measure for `O=C(Nc1ccc(Cl)c(-c2nc3ccccc3o2)c1)c1ccc(-c2cccc([N+](=O)[O-])c2)o1`: inactive: 62%.
With `COc1ccccc1N1CCN(C(c2ccc(Cl)cc2)c2nnc(-c3cccc(F)c3)o2)CC1` (stereo not given), the survival was inactive: 78%.
The same measure for `CCCSc1oc(-c2ccco2)nc1S(=O)(=O)c1ccc(Cl)cc1`: inactive: 49%; for `N#Cc1nc2ccccc2[nH]1`: inactive: 108%.
On to `COc1ccccc1CNC(=O)c1cnc(N(C)C)nc1`, for which the survival was inactive: 85%.
Take `COc1ccc(CC(=O)Nc2sc3c(c2C(=O)Nc2cccc(C)c2)CCCCC3)cc1`: the survival is inactive: 63%.
Regarding `CC1CCn2c(nc3cc(C(=O)NCCc4ccccc4)ccc32)C1` (stereo not given), the survival is inactive: 82%.
Take `CCOc1ccc(C(=O)Nc2nc(-c3ccc(Br)cc3)ns2)cc1`: the survival was inactive: 84%.
On to `COc1ccc(NC(=O)Cn2c(SCc3ccc(F)cc3)nc3cccnc32)c(OC)c1`, for which the survival is inactive: 81%.
Turning to `COc1cccc(N2CCN(C(=O)c3cc4c(=O)n(Cc5cccnc5)ccc4nc3C)CC2)c1`, the survival was inactive: 75%.
